Drawing on the supplement of paper PMC4604168 (melanoma cell lines), this text covers cell count for 4 compounds.

The list shows a part of the results. Many values rest on one well or one pass, so single values are uncertain.

Test systems include A101D; A2058; A375.
Common to all, as to assay: cell count relative to DMSO control; melanoma cells; higher = more viable cells
What all share (details): library dose: standard library concentration; 72 h
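Further: cells treated in 1,536-well plates, then fixed and DAPI-stained, with nuclei counted from automated high-throughput microscope images.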

For `COc1ccc(C2=N[C@@H](c3ccc(Cl)cc3)[C@@H](c3ccc(Cl)cc3)N2C(=O)N2CCNC(=O)C2)c(OC(C)C)c1` [Nutlin-3] + C[C@@H]1CCN(C(=O)CC#N)C[C@@H]1N(C)c1ncnc2[nH]ccc12 [CP690550] (first compound 0.5 µM, partner dose 5 µM), the cell count worked out at 70.4% in the assay with A101D, 82.7% in the assay on A2058 and 86.8% in the assay on A375.
With `Cc1cn(-c2cc(NC(=O)c3ccc(C)c(Nc4nccc(-c5cccnc5)n4)c3)cc(C(F)(F)F)c2)cn1` [nilotinib] + Nc1cccc2c1CN(C1CCC(=O)NC1=O)C2=O [lenalidomide] (first compound 1 µM, partner dose 5 µM), the figures for the cell count in the assay with A101D, in the assay on A2058 and in the assay with A375 were 98.4%, 119% and 127%, respectively.
For `Cn1c(=O)n(-c2ccc(C(C)(C)C#N)cc2)c2c3cc(-c4cnc5ccccc5c4)ccc3ncc21` + C[C@]1(c2nc3c(C(N)=O)cccc3[nH]2)CCCN1 [Veliparib] (first compound 0.02 µM, partner dose 7 µM) the same measures were 67.2%, 58.6% and 76.7%.
For `Cc1cn(-c2cc(NC(=O)c3ccc(C)c(Nc4nccc(-c5cccnc5)n4)c3)cc(C(F)(F)F)c2)cn1` [nilotinib] + Cn1nnc2c(C(N)=O)ncn2c1=O [temozolomide] (first compound 1 µM, partner dose 10 µM) the same measures were 82.4%, 43.4% and 113%.
